# Reference: the supplement of paper PMC4604168 (melanoma cell lines)
# Some of the results follow. Single values are uncertain, as repeats are few or missing.
# System: IPC-298
# Experiment: cell count relative to DMSO control; melanoma cells; higher = more viable cells
# Conditions: library dose: low library concentration; 72 h
# 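Note: cell number obtained by counting DAPI-stained nuclei in high-throughput microscope images with image analysis software, screen run in 1,536-well plates.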
row,SMILES,cell count
1,"COc1ccc(C2=N[C@@H](c3ccc(Cl)cc3)[C@@H](c3ccc(Cl)cc3)N2C(=O)N2CCNC(=O)C2)c(OC(C)C)c1 [Nutlin-3] + C=C(c1ccc(C(=O)O)cc1)c1cc2c(cc1C)C(C)(C)CCC2(C)C [Bexarotene] (first compound 0.1 µM, partner dose 2 µM)",96.6%
2,"Cc1cc(Nc2cc(N3CCN(C)CC3)nc(/C=C/c3ccccc3)n2)n[nH]1 + Cc1nc(Nc2ncc(C(=O)Nc3c(C)cccc3Cl)s2)cc(N2CCN(CCO)CC2)n1 [dasatanib] (first compound 0.04 µM, partner dose 0.004 µM)",95.3%
3,"Cc1cn(-c2cc(NC(=O)c3ccc(C)c(Nc4nccc(-c5cccnc5)n4)c3)cc(C(F)(F)F)c2)cn1 [nilotinib] + CC(=O)O[C@@]12CO[C@@H]1C[C@H](O)[C@@]1(C)C(=O)[C@H](O)C3=C(C)[C@@H](OC(=O)[C@H](O)[C@@H](NC(=O)OC(C)(C)C)c4ccccc4)C[C@@](O)([C@@H](OC(=O)c4ccccc4)[C@H]21)C3(C)C [Docetaxel] (first compound 0.2 µM, partner dose 0.0001 µM)",69.9%
4,"Cn1c(=O)n(-c2ccc(C(C)(C)C#N)cc2)c2c3cc(-c4cnc5ccccc5c4)ccc3ncc21 + CO[C@H]1C[C@@H]2CC[C@@H](C)[C@@](O)(O2)C(=O)C(=O)N2CCCC[C@H]2C(=O)O[C@H]([C@H](C)C[C@@H]2CC[C@@H](OCCO)[C@H](OC)C2)CC(=O)[C@H](C)/C=C(\C)[C@@H](O)[C@@H](OC)C(=O)[C@H](C)C[C@H](C)/C=C/C=C/C=C/1C [everolimus] (first compound 0.004 µM, partner dose 0.02 µM)",49.9%
5,"COc1ccc(C2=N[C@@H](c3ccc(Cl)cc3)[C@@H](c3ccc(Cl)cc3)N2C(=O)N2CCNC(=O)C2)c(OC(C)C)c1 [Nutlin-3] + C[C@]1(c2nc3c(C(N)=O)cccc3[nH]2)CCCN1 [Veliparib] (first compound 0.1 µM, partner dose 1.4 µM)",99%
6,"COc1ccc(C2=N[C@@H](c3ccc(Cl)cc3)[C@@H](c3ccc(Cl)cc3)N2C(=O)N2CCNC(=O)C2)c(OC(C)C)c1 [Nutlin-3] + Nc1cccc2c1CN(C1CCC(=O)NC1=O)C2=O [lenalidomide] (first compound 0.1 µM, partner dose 1 µM)",103%
7,"CC(C)C[C@H](NC(=O)[C@H](Cc1ccccc1)NC(=O)c1cnccn1)B(O)O [Bortezomib] + O=C(O)[C@@H]1[O][Sb](=[O])([O][Sb]2(=[O])[O][C@H]([C@H](O)CO)[C@H](O)[C@H](C(=O)O)[O]2)[O][C@H]([C@H](O)CO)[C@@H]1O [stibogluconate] (first compound 0.001 µM, partner dose 2 µM)",91.9%
8,"COc1ccc(C2=N[C@@H](c3ccc(Cl)cc3)[C@@H](c3ccc(Cl)cc3)N2C(=O)N2CCNC(=O)C2)c(OC(C)C)c1 [Nutlin-3] + Nc1ccn([C@@H]2O[C@H](CO)[C@@H](O)C2(F)F)c(=O)n1 [gemcitabine] (first compound 0.1 µM, partner dose 0.0004 µM)",94.8%
9,"Cc1cc(Nc2cc(N3CCN(C)CC3)nc(/C=C/c3ccccc3)n2)n[nH]1 + CCCS(=O)(=O)Nc1ccc(F)c(C(=O)c2c[nH]c3ncc(Cl)cc23)c1F [PLX4720] (first compound 0.04 µM, partner dose 0.08 µM)",89.6%
10,"Cn1c(=O)n(-c2ccc(C(C)(C)C#N)cc2)c2c3cc(-c4cnc5ccccc5c4)ccc3ncc21 + COc1ccc(Cl)c(Nc2nc3ccccc3nc2NS(=O)(=O)c2cccc(NC(=O)C(C)(C)N)c2)c1 [XL147] (first compound 0.004 µM, partner dose 0.8 µM)",91%
11,"Cc1cn(-c2cc(NC(=O)c3ccc(C)c(Nc4nccc(-c5cccnc5)n4)c3)cc(C(F)(F)F)c2)cn1 [nilotinib] + NC(=O)c1ccc(N(C(N)=O)c2c(F)cccc2F)nc1-c1ccc(F)cc1F [VX702] (first compound 0.2 µM, partner dose 0.4 µM)",98.7%
12,"Cc1cn(-c2cc(NC(=O)c3ccc(C)c(Nc4nccc(-c5cccnc5)n4)c3)cc(C(F)(F)F)c2)cn1 [nilotinib] + O=C(O)c1ccc2c(c1)nc(Nc1cccc(Cl)c1)c1ccncc12 [CX4945] (first compound 0.2 µM, partner dose 0.4 µM)",91.9%
